The values below come from PubChem BioAssay AID1963576 (National Center for Advancing Translational Sciences (NCATS), 2024).

Screen size: about 46,000 compounds; about 60 (0.1%) were called active. Not shown: some 3% with an inconclusive outcome. Calls follow the shape of the dose curve; as a rule, active = well fitted inhibition curve with a large enough effect; inconclusive = small, poorly fitted or top-dose-only effect; inactive = no such curve, though single readings can be large or run the other way. The list shows a part of the results.

The nature of this test: Primary qHTS assay for Inhibitors of ovarian cancer metastasis using an organotypic tumor microenvironment (TME) model. Also: nearly all actives have a fitted effect of over 65% in size.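 As to activity change, negative = inhibition: plate controls were DMSO wells for no effect and tomatine positive control wells for full effect.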 As to conditions: SKOV3ip1-GFP adhesion/invasion on 3D omental model, fluorescence; series mostly up to 45.8 µM; activity change, negative = inhibition: at the top concentration. The gist of the method:
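Primary human omental fibroblast/mesothelial 3D culture pre-formed 48 h. SKOV3ip1-GFP cells added with compounds (0.36-46 umol/L), incubated 2 h RT/16 h 37 C, fixed; GFP cells quantified at 488/509 nm.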
Background: Quantitative high-throughput screening tests each substance at several concentrations.
With `Cc1ccc(NC(=O)CN2C(=O)CCc3cc(S(=O)(=O)N4CCOCC4)ccc32)cc1F`, the “activity change, negative = inhibition” value is inactive: 43.4%.

In the case of `CCc1ccc(-n2nc(C)c3c(C)cc(=O)n(Cc4nc(-c5ccccc5)oc4C)c32)cc1`, the “activity change, negative = inhibition” value is inactive: 1.97%.

Consider `Cc1ccc(C(=O)CSc2nc(-c3ccccc3)nc3c2CCCC3)cc1`, for which the compound was called inactive. As for `CCOc1ccccc1NC(=O)N1CC(CC)Oc2ccccc21` (stereo not drawn), the “activity change, negative = inhibition” value is inactive: -1.6%. For the compound `CCOC(=O)CSc1nc(-c2ccc(C)cc2C)cc(-c2ccccc2)c1C#N`, the outcome was inactive. For the compound `Cc1cccc(NS(=O)(=O)c2c(C)nc3sccn3c2=O)c1C`, the call was inactive. Same read-out and setting: under `CCSc1nc2c([nH]c3ccccc32)c(=O)n1CC` stands “inactive”. As to `O=C(NCc1ccccc1Cl)c1cc2c(s1)-c1ccc(Cl)cc1SC2`, the “activity change, negative = inhibition” value is inactive: -4.03%.

Turning to `COc1cccc(CNCCNC(=O)c2nonc2N)c1`, the “activity change, negative = inhibition” value is inactive: -27.2%. Still for that read-out and setting: under `COC(=O)c1ccc2c(C(=Nc3ccc(N(C)C(=O)CN4CCN(C)CC4)cc3)c3ccccc3)c(O)[nH]c2c1` stands inactive: -3.3%. Regarding `O=C(Cn1c(=O)nc(-c2ccccc2)c2ccccc21)Nc1cccc(C(F)(F)F)c1`, the compound was classed as inactive. Still for that read-out and setting: the result for `Cc1cccc(CSc2ncc(Cl)c(C(=O)Nc3sc4c(c3C(N)=O)CCCC4)n2)c1` reads “inactive”. In the case of `COc1cccc(-n2c(=O)c3c(C)c(C)sc3n(CC(=O)NCc3ccc(C)cc3)c2=O)c1`, the “activity change, negative = inhibition” value was inactive: 9.83%. Take `CC(=O)N1CCc2c(sc(NC(=O)CSc3ccccc3)c2-c2nc3ccccc3s2)C1`: the result was inactive. On to `CC(C)(C)C(=O)Nc1cccc(-c2cn3cccnc3n2)c1`, for which the “activity change, negative = inhibition” value is inactive: -14.9%.

For the compound `CCOc1ccc(CCNC(=O)c2cc3c(=O)oc4ccc(C)cc4c3s2)cc1OCC`, the “activity change, negative = inhibition” value was inactive: 42.6%.

In the case of `Cc1ccc(Cc2c(C)nc3nc(SCC(=O)NC4CCC(C)CC4)nn3c2C)cc1` (stereo not drawn), the “activity change, negative = inhibition” value was inactive: 1.23%.

Regarding `CCOC(=O)c1ccc2c(c1)N(CC(=O)N(C)c1ccccc1)C(=O)c1ccccc1S2`, the “activity change, negative = inhibition” value was inactive: -1.02%.

In the case of `COc1ccccc1NC(=O)c1cc(=O)c2ccc(C)c(C)c2o1`, the “activity change, negative = inhibition” value was inactive: -8.54%. On to `COc1ccc(-c2cn(-c3ccc(C)cc3)c(S(=O)(=O)CC(=O)Nc3ccc(F)cc3)n2)cc1`, for which the result was inactive.

Regarding `COc1cc(Nc2nc(SCC(=O)c3ccc(Br)cc3)nc3ccccc23)cc(OC)c1`, the result was inactive. `CC1CCCCN1C(=O)CSc1n[nH]c(-c2ccccc2Cl)n1` (stereo not drawn): the “activity change, negative = inhibition” value is inactive: -4.68%. On the same count and under the same terms, under `O=C(CC1N=C2c3ccccc3N=C(SCc3cccc(Cl)c3)N2C1=O)NCc1ccc2c(c1)OCO2` (stereo not drawn) stands inactive: -0.112%. On the same count and under the same terms, the result for `Cc1nn(CCC(=O)Nc2cc(F)ccc2F)c(=O)c2nn(-c3ccccc3)c(C)c12` reads inactive: 0.475%; that for `N#C/C(=C\c1ccc(-c2ccc(C(=O)O)cc2)o1)C(=O)Nc1ccccc1C(=O)O`, inactive: -2.77%.

On to `O=C(OCc1cc(=O)n2nc(-c3cccs3)sc2n1)c1ccc(Cl)cc1`, for which the “activity change, negative = inhibition” value was inactive: 0.641%. Same read-out and setting: the result for `COc1ccc(-c2nc3ccc(NS(=O)(=O)c4ccc(C)cc4)cc3o2)cc1` reads inactive: -7.79%; that for `O=c1[nH]cnc2c1ncn2[C@H]1CC[C@@H](CO)O1`, inactive: 2.91%; that for `CC(C)OCCCNC(=O)c1ccc(CSc2nc3cccnc3n2Cc2ccccc2)cc1`, inactive: 7.56%. `CCN(C(=O)c1nn(-c2ccc(OC)c(Cl)c2)c(=O)c2c1c1ccccc1n2C)c1cccc(C(F)(F)F)c1`: the “activity change, negative = inhibition” value was inactive: -0.896%. Take `O=C(CN1C(=O)COc2ccc(Cl)cc21)Nc1ccc(F)cc1`: the “activity change, negative = inhibition” value is inactive: 3.81%.

For the compound `Cc1nc2nc(CNC(=O)OC(C)(C)C)nn2c(C)c1CCC(=O)NCc1ccc(F)cc1`, the “activity change, negative = inhibition” value is inactive: 1.47%. On the same count and under the same terms, the result for `CCC1CCC(C(=O)NC(C(=O)Nc2cccc(OC)c2)C(C)C)CC1` (stereo not drawn) reads inactive: 5.03%. Regarding `O=C(CCC(=O)N1CC2CCCN2c2ccccc21)NCc1ccc(Cl)cc1` (stereo not drawn), the compound was classed as inactive. For the compound `Cc1cc(CN2CCN(c3ccccc3F)CC2)cs1`, the “activity change, negative = inhibition” value was inactive: 1.32%.

Take `Cc1cccc(NC(=O)CSc2nnc3[nH]c(=O)cc(-c4ccccc4)n23)c1C`: the “activity change, negative = inhibition” value is inactive: 0.919%. On the same count and under the same terms, under `CCOc1ccc(CNCc2c(C(=O)O)c(C)n(Cc3cccc(OC)c3)c2C)cc1OC` stands inactive: 0.954%. The same measure, in the same setting: the result for `Cc1ccc(Cn2c(C(=O)NCc3ccccc3Cl)cc3sccc32)cc1` reads inactive: -0.308%.

`CCC1=C(c2ccc(C)cc2)S(=O)(=O)N=C1N1CCC(C(=O)Nc2ccccc2F)CC1`: the compound was called inactive. Still for that read-out and setting: the result for `Cc1ccc(NC(=O)Cn2ncn3c(cc4ccccc43)c2=O)cc1F` reads “inactive”. With `Cc1nc2sccn2c(=O)c1S(=O)(=O)Nc1ccc(N2CCOCC2)c(Cl)c1`, the “activity change, negative = inhibition” value was inactive: -4.87%. Still for that read-out and setting: the result for `COC(=O)c1cc2sc(C)cc2n1Cc1cccc(OC)c1` reads inactive: -15.1%. As for `COc1ccc(CNC(=O)CCCN2C(=O)CSc3c2c(C)nn3-c2ccccc2)cc1`, the outcome was inactive.

For the compound `COc1ccc(C2Nc3ccccc3-c3cc(C)nn32)cc1OC` (stereo not drawn), the “activity change, negative = inhibition” value is inactive: -9.97%. For `CCOc1cc(C(=O)Nc2cc3c(cc2N2CCOCC2)n(C)c(=O)n3C)cc(OCC)c1OCC`, the “activity change, negative = inhibition” value was inactive: -9.19%.

Turning to `O=c1cc(-c2ccccc2)nc(SCc2nc(-c3ccccc3Cl)no2)[nH]1`, the “activity change, negative = inhibition” value is inactive: -2.45%. For the compound `CCN(CC)CCNC(=O)C1CCN(c2nn3cc(-c4ccc(F)cc4)nc3s2)CC1`, the result was inactive. Consider `Cc1cccn2c(=O)c(C(=O)NCc3ccc(F)cc3)c(O)nc12`, for which the “activity change, negative = inhibition” value was inactive: 1.39%.

`CCOC(=O)c1c(C)[nH]c(C)c1S(=O)(=O)N1CCCC(C(=O)NCc2cccc(C)c2)C1` (stereo not drawn): the “activity change, negative = inhibition” value is inactive: 2.63%. For `CCOC(=O)c1c(-c2ccc(OC)cc2)oc2ccc(OCc3ccccc3C)cc12`, the “activity change, negative = inhibition” value is inactive: 9.68%.

Take `CNc1ncnc2c1cnn2-c1ccc(C)c(C)c1`: the “activity change, negative = inhibition” value is inactive: 7.43%. Consider `Cc1ccccc1CNC(=O)CCCn1c(=O)c2cccn2c2cccnc21`, for which the “activity change, negative = inhibition” value is inactive: -18.1%.

On to `Fc1ccc([C@@H]2CCNC[C@H]2COc2ccc3c(c2)OCO3)cc1`, for which the “activity change, negative = inhibition” value was inactive: 0.698%. As for `Oc1ccccc1-c1nc(/C=C/c2ccccc2Cl)nn1-c1ccccc1`, the compound was called inactive. Take `COc1cc(NC(=O)c2cccc3c2C(=O)N(C2CCCCC2)C3)cc(OC)c1OC`: the call was inactive. For the compound `Cc1cccc(NC(=O)c2ccc(-n3cnc4cccnc43)cc2)c1C`, the “activity change, negative = inhibition” value was inactive: 32.2%. Same read-out and setting: the result for `Cc1ccc(N2CC(NC(=O)c3cccs3)CC2=O)cc1C` (stereo not drawn) reads inactive: -11.4%; that for `CCc1ccc(C(=O)c2cn(CC(=O)Nc3ccc4c(c3)OCO4)c3ccc(OC)cc3c2=O)cc1`, inactive: -8.62%.

On to `Cc1ccccc1OCc1ccc(-c2nc(C#N)c(NCc3cccnc3)o2)o1`, for which the “activity change, negative = inhibition” value was inactive: 0.0086%. On the same count and under the same terms, under `CCOc1cc(/C=C(\C#N)C(=O)NCC2CCCO2)ccc1O` (stereo not drawn) stands inactive: 0.757%; under `CC1=C(c2ccc(C)c(C)c2)S(=O)(=O)N=C1N1CCC(C(=O)N2CCC(C)CC2)CC1`, inactive: -3.18%; under `COc1ccc(OC)c(CNC(=O)C(C)n2c(C)c3cnn(-c4ccccc4)c(=O)c3c2C)c1` (stereo not drawn), inactive: 6.88%. Still for that read-out and setting: under `CCOc1ccc(NC(=O)C2CCC(CNS(=O)(=O)c3ccc(Br)s3)CC2)cc1` (stereo not drawn) stands inactive: 2.76%.
